Positions count from the first letter of the chain named. Results are given in words; binding and its absence hold for the method and conditions named. Some binding calls cover weakened binding; strength is not graded here. Values belong to the binder of their own block, whether it stands above or below them.
Experiments:
[1] = target: T1, PabA variant aS171A (Escherichia coli) (UniProt P00903); experiment: SEC; analytical SEC without Gln; PabA and PabB mixed equimolar, 50 μM each; Superdex 200 increase 10/300 GL; 50 mM Tris/HCl pH 7.5, 50 mM KCl, 5 mM MgCl2, 2 mM DTT; 25 °C; without Cho; both purified
T1 sequence: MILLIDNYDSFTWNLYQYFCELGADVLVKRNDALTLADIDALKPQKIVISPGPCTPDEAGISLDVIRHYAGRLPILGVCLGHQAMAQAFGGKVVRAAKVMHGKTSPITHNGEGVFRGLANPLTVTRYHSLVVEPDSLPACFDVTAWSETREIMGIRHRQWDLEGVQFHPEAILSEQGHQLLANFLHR

[2] = target: T2, PabA double variant [Y127A, S171A] (Escherichia coli) (UniProt P00903); experiment: as above
T2 sequence: T1 sequence with Y127A

[3] = target: T2, PabA double variant [Y127A, S171A] (Escherichia coli); experiment: condition: only without Gln (250 μM PabB titrated into 25 μM PabA); ITC; 250 μM PabB titrated into 25 μM PabA in the cell; 25 °C; 50 mM Tris/HCl pH 7.5, 50 mM KCl, 5 mM MgCl2; without Cho and Gln; one set of sites; both purified
[4] = target: T3, PabA, glutaminase subunit of aminodeoxychorismate synthase (ADCS) from Escherichia coli, wild type (Escherichia coli) (UniProt P00903); experiment: SEC; analytical SEC without Gln; PabA and PabB mixed equimolar, 50 μM each; Superdex 200 increase 10/300 GL; 50 mM Tris/HCl pH 7.5, 50 mM KCl, 5 mM MgCl2, 2 mM DTT; 25 °C; without Cho; both purified
T3 sequence: T1 sequence with A171S

[5] = target: T3, PabA, glutaminase subunit of aminodeoxychorismate synthase (ADCS) from Escherichia coli, wild type (Escherichia coli); experiment: SEC; analytical SEC with 5 mM L-Gln in the buffer; PabA and PabB mixed equimolar, 50 μM each; Superdex 200 increase 10/300 GL; 50 mM Tris/HCl pH 7.5, 50 mM KCl, 5 mM MgCl2, 2 mM DTT; 25 °C; without Cho; both purified
[6] = target: T3, PabA, glutaminase subunit of aminodeoxychorismate synthase (ADCS) from Escherichia coli, wild type (Escherichia coli); experiment: ITC; 250 μM PabB titrated into 25 μM PabA in the cell; 25 °C; 50 mM Tris/HCl pH 7.5, 50 mM KCl, 5 mM MgCl2; without Cho and Gln; one set of sites; both purified

B2: PabB variant bD308E (enzyme, UniProt P05041 1-453)
chain: MKTLSPAVITLLWRQDAAEFYFSRLSHLPWAMLLHSGYADHPYSRFDIVVAEPICTLTTFGKETVVSESEKRTTTTDDPLQVLQQVLDRADIRPTHNEDLPFQGGALGLFGYDLGRRFESLPEIAEQDIVLPDMAVGIYDWALIVDHQRHTVSLLSHNDVNARRAWLESQQFSPQEDFTLTSDWQSNMTREQYGEKFRQVQEYLHSGDCYQVNLAQRFHATYSGDEWQAFLQLNQANRAPFSAFLRLEQGAILSLSPERFILCDNSEIQTRPIKGTLPRLPDPQEDSKQAVKLANSAKDRAENLMIVELMRNDIGRVAVAGSVKVPELFVVEPFPAVHHLVSTITAQLPEQLHASDLLRAAFPGGSITGAPKVRAMEIIDELEPQRRNAWCGSIGYLSFCGNMDTSITIRTLTAINGQIFCSAGGGIVADSQEEAEYQETFDKVNRILKQLEK
binding [4]: no binding (condition: without Gln (50 μM each))

B4: PabB variant bD308A (enzyme, UniProt P05041 1-453)
chain: B2 chain with E308A
binding [5]: no binding (tested: 50 μM each)
binding [4]: no binding (tested: 50 μM each)
binding [6]: no binding (tested: 250 μM PabB titrated into 25 μM PabA)

B5: PabB variant bD308N (enzyme, UniProt P05041 1-453)
chain: B2 chain with E308N
binding [5]: no binding (tested: 50 μM each)
binding [4]: no binding (tested: 50 μM each)
binding [6]: no binding (tested: 250 μM PabB titrated into 25 μM PabA)

B6: PabB variant bY210A (enzyme, UniProt P05041 1-453)
chain: B2 chain with Y210A, E308D
binding [4]: no binding (condition: without Gln (50 μM each))

Further lines, with some results ahead:

binding [1]: binds weakly
binding [3]: no binding
B1: PabB, synthase subunit of aminodeoxychorismate synthase (ADCS) from Escherichia coli, wild type (enzyme, UniProt P05041 1-453)
chain: B2 chain with E308D
binding [2]: no binding (condition: without Gln (50 μM each))

binding [5]: no binding (tested: 50 μM each)
binding [4]: no binding (tested: 50 μM each)
B3: PabB variant bR311A (enzyme, UniProt P05041 1-453)
chain: B2 chain with E308D, R311A
binding [6]: no binding (tested: 250 μM PabB titrated into 25 μM PabA)

Source: paper PMC7617670
